This sample is rich in variants without activity. A value given as a limit tells only on which side of the number the result lay.

The labels stand for the following.
B1: tRNA (parent)
chain: CUCUCGGUAGCCAAGUUGGUUUAAGGCGCAAGACUUUAAUUUAUCACUACGAAAUCUUGAGAUCGGGCGUUCGACUCGCCCCCGGGAGAUUUUUUCCUCGAGCAA

In this data set the parent is B1. The data set is described as follows: nonsense suppression (GFP-seq) (ratio to wild type); higher = more function; SUP4oc tRNA, yeast GFP reporter sort-seq. The essentials:
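To measure nonsense suppression, tRNA variants from a library carrying ~3% random mutations were integrated into the yeast genome alongside RFP and a GFP ochre reporter under galactose control. Growth took place in raffinose/galactose medium supplemented with 80 mg/L adenine, followed by sorting into GFP/RFP bins and Illumina sequencing of each bin (phred ≥30). For each variant with ≥100 reads and ≥30 cells, the bin median GFP/RFP values were weighted by its estimated cell share per bin and referenced to the unmutated parent tRNA.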
For the variant A24U G25U G66U, the nonsense suppression is at most 0.026.

In the case of A62G U63G, the nonsense suppression was at most 0.026.

In the case of U4A G15U, the nonsense suppression is at most 0.026.

As for G6C A14G G61U, the nonsense suppression is at most 0.026.

For the variant A13G, the nonsense suppression was determined as 0.191.

Turning to U2C C5A G88U, the nonsense suppression is at most 0.026.

For the variant G18C C72G A74G, the nonsense suppression was at most 0.026.

C11G U58C C68A G86A: the nonsense suppression was at most 0.026.

For U57A G66A, the nonsense suppression is at most 0.026.

On to U57A G66C, for which the nonsense suppression was at most 0.026.

In the case of G15A A31G, the nonsense suppression came out at 0.0274.

Take C27G A89G: the nonsense suppression is at most 0.026.

As for A14C G26C A54G, the nonsense suppression is at most 0.026.

Consider U2A G7C G73C, for which the nonsense suppression was at most 0.026.

On to C34U U35G U57C G61A C82U, for which the nonsense suppression was at most 0.026.

Take C1A U55A C77A C82U: the nonsense suppression was at most 0.026.

U20A A30C U63A C83G: the nonsense suppression was at most 0.026.

U8A G26A G84A: the nonsense suppression was at most 0.026.

Regarding C3G U8A G25U C77G, the nonsense suppression is at most 0.026.

Take G15A U55G U71G C82U: the nonsense suppression was at most 0.026.

Consider A54U U63C, for which the nonsense suppression was found to be 0.798.

Take A14C U16C G26C A74C: the nonsense suppression was at most 0.026.

Turning to U8C G10A U55C G73A, the nonsense suppression is at most 0.026.

For the variant C5U U58A G59A U63A G69C U70G, the nonsense suppression is at most 0.026.

For the variant G78C A89U, the nonsense suppression was at most 0.026.

In the case of G67U U71A, the nonsense suppression is at most 0.026.

Take G10A G78C: the nonsense suppression is at most 0.026.

Turning to U2G G59A, the nonsense suppression was at most 0.026.

Regarding U17G G19C G69U, the nonsense suppression is at most 0.026.

As to U2G U57G, the nonsense suppression was at most 0.026.

Consider C3G A9U U16C, for which the nonsense suppression is at most 0.026.

Take U20G U21C: the nonsense suppression was 0.761.

Turning to G7C A24G G28U U63G A87G G88U, the nonsense suppression is at most 0.026.

Regarding G15U G18U A62G, the nonsense suppression is at most 0.026.

Take A9C G19U U58A G67U: the nonsense suppression is at most 0.026.

As for A14G U20A G26U A54C A87U, the nonsense suppression was at most 0.026.

For G10A A30G U58A U63G, the nonsense suppression was at most 0.026.

Turning to C3A U16C A30C U58A U70G U71C, the nonsense suppression is at most 0.026.

Turning to C1U G6A C64G, the nonsense suppression was at most 0.026.

As to U8G A9G G10U U21A C34G G73U G86C, the nonsense suppression is at most 0.026.

As to A9U G28C G85A, the nonsense suppression amounted to 0.0603.

For the variant A24C C29A, the nonsense suppression is at most 0.026.

In the case of A33C C72G C79A, the nonsense suppression is at most 0.026.

As to C34G U55C, the nonsense suppression was determined as 0.276.

G15U G26A C56U: the nonsense suppression is at most 0.026.

Regarding G6U U17G U20G C64G G69C, the nonsense suppression was at most 0.026.

On to U57G U63C C72A G85U, for which the nonsense suppression was at most 0.026.

For the variant U21G A24U A33U, the nonsense suppression is at most 0.026.

For the variant C12U C56U, the nonsense suppression was at most 0.026.

Turning to A14U C68G, the nonsense suppression is at most 0.026.

Turning to U21C G32U A60U, the nonsense suppression was at most 0.026.

Regarding G59U C72G C79U G86C, the nonsense suppression is at most 0.026.

Consider G25A U55C A62C U70A, for which the nonsense suppression is at most 0.026.

A24C C34G G86U: the nonsense suppression is at most 0.026.

Turning to C56A C77G G86A, the nonsense suppression was at most 0.026.

In the case of G15U A23U A30C G65C G73U U76G, the nonsense suppression was at most 0.026.

As for A23G G28A, the nonsense suppression was at most 0.026.

Regarding U57C G65A, the nonsense suppression was at most 0.026.

Turning to A33U U57C A62G, the nonsense suppression was at most 0.026.

For the variant U20C G32U C79G, the nonsense suppression was at most 0.026.

With G25A C56G C79U, the nonsense suppression was at most 0.026.

C12G A14C C27G U35C U55A: the nonsense suppression was at most 0.026.

As to G32U C79A, the nonsense suppression is at most 0.026.

For A23U C79U, the nonsense suppression is at most 0.026.

With A24C U55C G67U, the nonsense suppression was at most 0.026.

For C11A C80G A89G, the nonsense suppression was at most 0.026.

For G25U C64U C68A, the nonsense suppression was at most 0.026.

With G26U C75U, the nonsense suppression was at most 0.026.

On to A24U A31G C79A, for which the nonsense suppression was at most 0.026.

Turning to U71A C75A, the nonsense suppression was at most 0.026.

As for C3A U57C, the nonsense suppression is at most 0.026.

Turning to G6U G18C U76C A87U, the nonsense suppression is at most 0.026.

On to C29G U35G, for which the nonsense suppression is at most 0.026.

As for G26U A62U G66C, the nonsense suppression was at most 0.026.

Take C11G G69A C82A: the nonsense suppression was at most 0.026.

Take G15A A23G C64U U71A: the nonsense suppression was at most 0.026.

Take U57A G78A G85A: the nonsense suppression is at most 0.026.

Turning to G10U C29U A33C C64U G84U G86U, the nonsense suppression was at most 0.026.

Consider U22G A74C, for which the nonsense suppression is at most 0.026.

Turning to U20A U58A G67C A89G, the nonsense suppression is at most 0.026.

Take G7U A9C C77A: the nonsense suppression was at most 0.026.

For G67A C79G A87G, the nonsense suppression is at most 0.026.

Consider C29U G66C G88C, for which the nonsense suppression is at most 0.026.

Regarding C64A G67C, the nonsense suppression is at most 0.026.

Consider U2A C34G C75A, for which the nonsense suppression is at most 0.026.

As for U4A A9G G73U C77G G86U, the nonsense suppression was at most 0.026.

In the case of G61A G69C, the nonsense suppression is 0.0625.

Turning to C56A G59C A60U, the nonsense suppression is at most 0.026.

U8A G85U: the nonsense suppression stood at 0.071.

Consider G6A G7U, for which the nonsense suppression was at most 0.026.

Turning to A14U G18A, the nonsense suppression is at most 0.026.

G6C A14G A87G: the nonsense suppression was at most 0.026.

Take A60G C75A: the nonsense suppression came to 0.976.

Turning to C12A A23G C81G, the nonsense suppression was at most 0.026.

Take C3U G25A C29U: the nonsense suppression is at most 0.026.

Turning to C27A C80U, the nonsense suppression was at most 0.026.

Take A13G G61C: the nonsense suppression amounted to 0.0301.

As for G65C G88U, the nonsense suppression was at most 0.026.

Regarding C1U U76A, the nonsense suppression was at most 0.026.

For C3U U55A U57C C64U G67A, the nonsense suppression was at most 0.026.

Consider U20C C34A U76G, for which the nonsense suppression is at most 0.026.

C3U C27G: the nonsense suppression is 0.0543.

For U4C A23U, the nonsense suppression is at most 0.026.

For the variant G26A C27G G59U A60U G85A, the nonsense suppression was at most 0.026.

As for G10C A30C C81A G86A, the nonsense suppression is at most 0.026.

For the variant G7U U16G U57A G78U G86C, the nonsense suppression was at most 0.026.

On to C12U A23G G59A G61U, for which the nonsense suppression was at most 0.026.

Consider A30C U57G C68U, for which the nonsense suppression is at most 0.026.

U4A C11A U35C: the nonsense suppression is at most 0.026.

In the case of A24C G88A, the nonsense suppression was found to be 0.0453.

With A30U U55G G78C A89C, the nonsense suppression was at most 0.026.

For C11G U16A U58A, the nonsense suppression is at most 0.026.

Turning to C3U A14G G67U, the nonsense suppression is at most 0.026.

As for C3A U16G C29U G61U U71G, the nonsense suppression was at most 0.026.

With C34G C82A, the nonsense suppression is at most 0.026.

Turning to C11A A13U G18U U22A, the nonsense suppression is at most 0.026.

As for U17G G32U G67C U71A, the nonsense suppression is at most 0.026.

For the variant U21G C27U A54C C56U G66C, the nonsense suppression was at most 0.026.

For U21G C83U, the nonsense suppression came to 0.0839.

In the case of C5G A30G U71C, the nonsense suppression was at most 0.026.

C27U U71C C77G: the nonsense suppression was at most 0.026.

Take U16A A23C: the nonsense suppression is at most 0.026.

Consider C3A A23C, for which the nonsense suppression is at most 0.026.

With G10U A13C U22A, the nonsense suppression was at most 0.026.

For the variant C11U A60C G66A, the nonsense suppression was at most 0.026.

Regarding G19C G59C U71G, the nonsense suppression is at most 0.026.

Turning to A13U G26U A89G, the nonsense suppression was at most 0.026.

As to U17C G78C, the nonsense suppression was at most 0.026.

Regarding U17A G78A, the nonsense suppression turned out to be 0.449.

On to A54G G61U, for which the nonsense suppression was at most 0.026.

Regarding A9U G67A, the nonsense suppression was at most 0.026.

Consider A23C C80U G84U, for which the nonsense suppression was at most 0.026.

With A9G G78A G84A, the nonsense suppression was at most 0.026.

C27A G59A: the nonsense suppression is at most 0.026.

Take U35G U71G G86A: the nonsense suppression was at most 0.026.

As to U2G C80U, the nonsense suppression was at most 0.026.

Take C5U A74U U76C C83A: the nonsense suppression is at most 0.026.

Take C27A U55A G85U: the nonsense suppression was at most 0.026.

Regarding C3A A30G A31U C75U, the nonsense suppression is at most 0.026.

In the case of U21G A23G, the nonsense suppression is at most 0.026.

Turning to G6C U55A, the nonsense suppression was at most 0.026.

A23C U35G: the nonsense suppression is at most 0.026.

Regarding A33U C68G C80A, the nonsense suppression is at most 0.026.

As for A9G G59U, the nonsense suppression is at most 0.026.

With G26C C68A G86U, the nonsense suppression is at most 0.026.

Turning to G7A G28A, the nonsense suppression was at most 0.026.

In the case of G84U G86A, the nonsense suppression was at most 0.026.

Regarding U16G U35G G78U, the nonsense suppression is at most 0.026.

As for A54C U63A U71C, the nonsense suppression was at most 0.026.

With A14C G78A C80A C81A, the nonsense suppression was at most 0.026.

Take A13G G18C: the nonsense suppression was at most 0.026.

G59C U71G C77G: the nonsense suppression was at most 0.026.

Regarding A23G G65C C75G C83A, the nonsense suppression is at most 0.026.

For C5G U55G C64G G73C, the nonsense suppression was at most 0.026.

As for C34A U63G, the nonsense suppression was at most 0.026.

Consider G26A G59C, for which the nonsense suppression is at most 0.026.

With A24U C34A, the nonsense suppression is at most 0.026.

On to C56A U57G U58C U63A G78U, for which the nonsense suppression was at most 0.026.

G10U G32U: the nonsense suppression was at most 0.026.

In the case of G7A G18U, the nonsense suppression was at most 0.026.

In the case of C1U U22C A54G C75A G84A, the nonsense suppression was at most 0.026.

U8C A31U G65A: the nonsense suppression was at most 0.026.

In the case of C12A A33G, the nonsense suppression is at most 0.026.

On to U22A C77G C79U, for which the nonsense suppression was at most 0.026.

In the case of G18U G85A, the nonsense suppression is at most 0.026.

With A13G A14C U20C C27G U55C A60G, the nonsense suppression is at most 0.026.

On to C1G C34A C64A C68G, for which the nonsense suppression is at most 0.026.
